The structures appear in SMILES notation. The campaign covered roughly 50,000 compounds. About 800 (1.6%) showed an effect of 50% or more. The list shows a part of the results.

The target of this assay is Bcl-2-like protein 10 (Homo sapiens) (UniProt Q9HD36). The experiment in a line: TR3 peptide-Bcl-B binding displacers, biochemical primary FP assay, phenotype converters (AID 1240).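 Further: 0% = Bcl-B with tracer peptide and DMSO and 100% = tracer peptide lacking Bcl-B.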 The conditions noted are these: GST-Bcl-B / FITC-TR3 peptide fluorescence polarization; stronger effect = higher value; compound at 3.75 mg/L.
Sequence of UniProt Q9HD36 (Q9HD36 whole entry, looked up): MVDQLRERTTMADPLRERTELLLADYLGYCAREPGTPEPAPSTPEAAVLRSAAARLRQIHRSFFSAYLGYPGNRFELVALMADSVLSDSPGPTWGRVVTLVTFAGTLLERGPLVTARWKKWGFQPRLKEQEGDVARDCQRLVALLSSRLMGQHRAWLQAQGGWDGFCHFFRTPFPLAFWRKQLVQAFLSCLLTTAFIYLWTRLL
As to `CCOC(=O)C(=CNc1cc(Cl)ccc1Cl)C(=O)OCC`, the displacement was -8.5%.
For `O=C(Cn1c(NCCCO)nc2ccccc21)c1ccc([N+](=O)[O-])cc1` the value was 11.1%; for `CCOC(=O)c1c(NC(=O)c2ccc(F)cc2)sc(C)c1CC`, 46.7%.
Next, `Cc1cccc(OCC(=O)Nc2cc(C(F)(F)F)ccc2Cl)c1C`: -5%; `O=C(NCc1ccccc1)C(=O)Nc1cccc(Cl)c1Cl`: -4.3%.
For `Cc1c(CCNC(=O)c2ccccc2)c2ccccc2n1Cc1ccccc1` the value was -7.2%; for `CCCCC(CC)CNC(=O)C(=O)NCC1CCCO1` (stereo unspecified), -3.6%.
With `COc1ccc(S(=O)(=O)N2CCN(C(=O)Cc3ccccc3)CC2)cc1`, the displacement turned out to be 2.3%.
For `O=C(Nc1ccc(-c2ccc(NC(=O)c3ccccc3Cl)cc2)cc1)c1ccccc1Cl` the value was 16.9%; for `COc1ccc2c(c1)OCC/C2=N/OC(=O)c1ccc(OC)c([N+](=O)[O-])c1`, -9%.
For `O=C(Nc1ccccc1C(F)(F)F)C(F)(F)F` the value was -1.5%.
In the case of `Cc1ccc(/C=N\NC(=O)C(O)(c2ccccc2)c2ccccc2)o1`, the displacement was -1.1%.
Next, `NC(=O)Nc1ccc(C23CC4CC(CC(C4)C2)C3)cc1`: 0.5%; `Cc1occc1C(=O)N/N=C/c1ccc(-c2cccc([N+](=O)[O-])c2)o1`: -7.7%.
For `O=C(COc1ccccc1Cl)Nc1cccc(NC(=O)c2cccc(Cl)c2)c1` the value was 13.8%; for `O=S(=O)(c1ccc(NC(=S)Nc2ccccc2)cc1)N1CCc2ccccc21`, 9.1%.
For `COc1ccc(OC)c(/C=C/C(=O)c2ccc(F)cc2)c1`, the displacement is -37.5%.
Next, `Cc1ccc(Cl)cc1N(Cc1ccc(C(=O)O)cc1)S(=O)(=O)c1ccccc1`: -4.9%; `COCCNC(=O)c1cnn2c(-c3ccccc3)cc(-c3ccccc3)nc12`: 15.9%.
Next, `O=C1OC(c2ccc(Br)cc2)=C/C1=C/c1ccc2c(c1)OCO2`: 10.7%.
Next, `Cc1cc2c(cc1C)N(C(=O)CN1C(=O)c3ccccc3C1=O)C(C)(C)c1ssc(=S)c1-2`: 5.8%; `CN(C)c1ccc(/C=C2\C(=O)Oc3ccccc3C2=O)cc1`: 7.6%; `CCOc1ccc(N2C(=O)CC(NCC(=O)OC)C2=O)cc1` (stereo unspecified): -23.7%.
Turning to `COc1ccc(-c2nnc(Nc3ccc4c(c3)nc(C)n4C)c3ccccc23)cc1`, the displacement was determined as 3%.
With `Oc1c(Cl)cc(Cl)cc1/C=N/Nc1nc(-c2ccc(Br)cc2)cs1`, the displacement was -6.7%.
Next, `CC(C)/C=C1\CCCC\C1=N/NC(N)=O`: -7.4%; `Cc1c(NC(=O)c2ccc(CSc3ccc(Cl)cc3)cc2)c(=O)n(-c2ccccc2)n1C`: 18.8%; `Cc1ccc(Cl)c(OCC(O)Cn2c(C)nc3ccccc32)c1` (stereo unspecified): -11.5%.
Next, `COc1cc(C2/C(=C(\O)c3ccc(Cl)cc3)C(=O)C(=O)N2c2cccnc2)ccc1O` (stereo unspecified): 12.6%; `COCCCNC(=O)COc1ccccc1`: 12.4%.
For `Cc1ccc(NC(=O)c2cc([N+](=O)[O-])ccc2Cl)cc1Cl` the value was -1.1%; for `O=C1/C(=C/c2cn(-c3ccccc3)nc2-c2cccs2)SC(=S)N1C1CCS(=O)(=O)C1` (stereo unspecified), 100%; for `O=[N+]([O-])c1cccc(S(=O)(=O)Nc2ccccc2CO)c1`, 4.1%.
For `C=CCNC(=O)CN(c1ccc(C)cc1)S(=O)(=O)c1ccc(OCC)cc1`, the displacement amounted to 8.8%.
For `CC(=O)C1=C(C)N=c2s/c(=C/c3ccc(N(C)C)cc3)c(=O)n2C1c1ccccc1` (stereo unspecified) the value was 3%.
`S=c1[nH]nc(COc2ccc(Cl)cc2Cl)n1-c1ccccc1`: the displacement is -7.2%.
Next, `O=C1CC(NCc2ccc3c(c2)OCO3)C(=O)N1c1ccc(F)cc1` (stereo unspecified): -7.8%; `Cc1cc(C(=O)Nc2ccc(N(C)C)cc2)c(C)o1`: 11.9%; `CC(=O)Oc1ccc(N2C(=O)C3CC(C)=C(C)CC3C2=O)cc1` (stereo unspecified): 11%.
For `COc1cc2c(cc1NS(=O)(=O)c1cccc([N+](=O)[O-])c1)oc1ccccc12` the value was 6.8%; for `CCc1c(C)sc(NC(=O)c2cccc([N+](=O)[O-])c2)c1C(N)=O`, 18.2%; for `COc1cccc(CN2CCN(C3CC4CCC3C4)CC2)c1OC` (stereo unspecified), -12%.
Next, `COc1ccc(C(=O)Nc2ccc(N3CCCCC3)cc2)cc1[N+](=O)[O-]`: 2.7%; `O=C(COc1ccc2ccccc2c1)NCC1CCCO1` (stereo unspecified): 12.6%.
`Cc1ccccc1Oc1nc2ccccc2n2cnnc12`: the displacement is -14.3%.
For `Cc1ccc(-n2nc3cc(C)c(NC(=O)COc4ccccc4C)cc3n2)cc1`, the displacement is -3.1%.
With `COc1ccc(CCNC(=O)CN(c2ccc(F)cc2)S(=O)(=O)c2ccccc2)cc1OC`, the displacement was -2.9%.
Next, `Cc1cc(=O)oc2cc(OCC(=O)OCc3ccccc3)ccc12`: -0.9%; `CN1C(=O)/C(=C\c2cn(Cc3ccc(F)cc3)c3ccccc23)SC1=S`: 14.9%; `CCc1cc2c(=O)c(-c3nc4ccccc4n3C)c(C)oc2c(CN2CCN(C)CC2)c1O`: 10.8%.
For `COCCNC(=O)C(=O)Nc1cc(OC)ccc1OC` the value was 10.6%.
Next, `C=CCOc1ccc(/C=C/C(=O)c2ccc(F)cc2)cc1OC`: 20.2%; `CC(=O)c1ccc(NC(=O)c2ccc3c(c2)C(=O)N(N2C(=O)c4ccccc4C2=O)C3=O)cc1`: 42.1%; `CC(=O)Oc1cccc(C(=O)Nc2ccc(-c3nc4ccccc4o3)cc2)c1`: 3.1%.
`COCCCNC(=O)c1ccc([N+](=O)[O-])cc1`: the displacement is -6.7%.
Next, `O=C1CCCc2c1[nH]c1ccc(CN3CCCCC3)cc21`: -4.1%; `Cc1cnnn1-c1ccc(C(=O)/C=C\c2ccco2)cc1`: 24.3%; `COc1cccc(C2C(C#N)=C(C)NC3=C2C(=O)CC(c2ccccc2)C3)c1OC` (stereo unspecified): 13.6%.
In the case of `CCOc1cc(C2Nc3ccccc3NC3=C2C(=O)CC(c2ccccc2)C3)cc(Br)c1O` (stereo unspecified), the displacement is -9.5%.
Consider `c1ccc(C2=C(c3ccccc3)N3CCN=C3S2)cc1`, for which the displacement was 6.4%.
For `CC(=O)N1c2ccccc2C(C)=CC1(C)C` the value was -6%; for `CC1=C(C(=O)Nc2ccc(Br)cc2)C(c2ccccc2F)NC(=S)N1` (stereo unspecified), 11.4%.
Next, `COc1cc(/C=N/NC(=O)Cc2nnc(N)s2)cc(OC)c1OC`: 9%; `COc1ccc(C2Nc3ccccc3NC3=C2C(=O)CC(c2ccccc2)C3)cc1OC` (stereo unspecified): -10.5%; `Cc1ccc(N(CC(=O)Nc2cccc(C(F)(F)F)c2)S(=O)(=O)c2ccc(F)cc2)cc1`: 8.5%.
Next, `CC(C)NC(=O)C(=O)Nc1ccc2c(c1)OCCO2`: 2.1%; `O=C(Nc1ccc(Cl)cc1)C1CC(=O)N(c2cccc([N+](=O)[O-])c2)C1` (stereo unspecified): 22.5%.
With `O=C(O)c1ccccc1SCCSc1ccccc1C(=O)O`, the displacement amounted to 3.2%.
Next, `O=C1OC(c2sc3ccccc3c2Cl)=N/C1=C/c1ccccc1`: 10%; `N#C/C(=C\c1ccc(-c2ccc(Cl)cc2)o1)C(=O)Nc1ccccc1O`: -1%.
In the case of `O=[N+]([O-])c1ccc(NCCOCCO)c(Cl)c1`, the displacement is -14.9%.
On to `COc1ccc(NC(=O)CN(c2ccc(C(C)C)cc2)S(=O)(=O)c2ccccc2)c(OC)c1`, for which the displacement was found to be 0%.
For `O=C(CN1C(=O)c2ccccc2C1=O)Nc1ccc(O)cc1C(=O)O` the value was -1.9%; for `O=C1C(=O)N(CCCn2ccnc2)C(c2ccccc2F)/C1=C(\O)c1ccc(Cl)cc1` (stereo unspecified), -1%.
For `CCOc1ccc(N(CC(=O)N2CCN(c3ccccc3)CC2)S(=O)(=O)c2ccccc2)cc1` the value was 40.7%; for `O=C(NCCN1CCN(C(=O)c2ccc(Cl)cc2)CC1)c1ccc(Cl)cc1`, -3.6%.
Next, `Nc1nc2ccccc2n1C(=O)c1c(Cl)cccc1Cl`: 1.4%.
For the compound `CN1C(=O)C(=Cc2cc(Br)c(O)c(I)c2)C(=O)N(C)C1=O`, the displacement was -7.9%.
Consider `Fc1cccc(Cl)c1Cc1noc(-c2ccccc2Br)n1`, for which the displacement came to 14.3%.
Next, `O=C1Nc2ccccc2/C1=N/N=C/c1ccc(-c2ccc(Cl)cc2)o1`: 0.9%.
For `O=C(NN1C(=O)/C(=C/c2cccnc2)SC1=S)C(c1ccccc1)c1ccccc1`, the displacement was -18.1%.
For `Cc1ccc(-n2c(C)cc(C=C3C(=O)NC(=S)NC3=O)c2C)cc1C` the value was 0.1%; for `CN1CCN(c2cc(N3CCN(CCO)CC3)ccc2[N+](=O)[O-])CC1`, 4.7%.
For `Cc1ccccc1OCC(=O)Nc1ccc(-c2nc3ccccc3[nH]2)cc1` the value was 11.8%; for `CC(CO)(CO)NC(=O)C(F)(F)C(F)(F)C(=O)NC(C)(CO)CO`, -0.3%; for `Cc1ccc(NC(=O)CSc2nnc(-c3ccccc3)c(-c3ccccc3)n2)cc1`, -1.6%.
On to `CCn1c(SCC(=O)N/N=C/C=C/c2ccccc2)nc2ccccc21`, for which the displacement was -11.6%.
For `CCOc1cc(Br)c(Br)c(/C=C2/SC(=O)NC2=O)c1O` the value was -10.9%; for `COc1cccc(NC(=O)c2c(-c3c(Cl)cccc3Cl)noc2C)c1`, 10.2%.
For `COc1cc2nc(-c3ccc([N+](=O)[O-])c(C)c3)oc(=O)c2cc1OC` the value was -11.4%.
On to `Cc1ccccc1NC(=O)c1ccco1`, for which the displacement came to 14%.
Turning to `Cc1ccc([N+](=O)[O-])cc1-c1ccc(/C=C2/C(=O)NC(=O)N(c3ccccc3)C2=O)o1`, the displacement amounted to 82.8%.
For `COC(=O)C1=C(C)N(c2ccc(C)c(C)c2)/C(=C\c2ccc(OCC(=O)Nc3ccccc3OC)cc2)C1=O` the value was 68%.
Turning to `COc1ccc(N(CC(=O)Nc2cccc(Cl)c2)S(=O)(=O)c2ccc(C)cc2)c(OC)c1`, the displacement was determined as 6.8%.
Next, `Cc1ccc(C)c(NC(=O)CN(c2cc(Cl)cc(Cl)c2)S(C)(=O)=O)c1`: 0.1%; `CCOC(=O)c1sc(NC(=O)C2COc3ccccc3O2)c(C(=O)OCC)c1C` (stereo unspecified): 0.2%.
For `Cc1cccc(C(C)C)c1NC(=O)Nc1cccc(Cl)c1` the value was -2%; for `CCCCc1nc(N)c(C#N)c(-c2cccc(Br)c2)c1CCC`, 44.9%.
For `Cc1ccc(NC(=O)c2c(C)nc3ccccn23)cc1` the value was 26.7%; for `Cc1ccc(C2SCC(=O)N2c2ccc(Cl)c(Cl)c2)cc1` (stereo unspecified), 12.9%; for `CCOc1ccc(S(=O)(=O)N(CC(=O)Nc2ccccc2C)c2ccc(C)cc2)cc1`, 5.2%.
Consider `O=C(Cc1ccccc1[N+](=O)[O-])N1CCN(c2ccc(F)cc2)CC1`, for which the displacement worked out at 11.4%.
For `C=CCNC(=O)c1cnn(-c2ccccc2)c1NC(=O)c1ccccc1Cl`, the displacement was 1.9%.
For `O=C(Nc1ccccc1C(F)(F)F)C12CC3CC(CC(C3)C1)C2` the value was -4.2%.
Next, `CCCCOC(=O)c1ccc(NC(=O)c2cc([N+](=O)[O-])ccc2Br)cc1`: 10.6%; `CCOC(=O)c1sc(NC(=O)c2ccc(Br)o2)c(C(N)=O)c1C`: 12.9%.

The record behind these values is PubChem BioAssay AID1240 (Sanford-Burnham Center for Chemical Genomics, 2008).
